Measured values reported in patent US20120191435A1 (SHANGHAI NATIONAL ENGINEERING RESEARCH CENTER OF ANTIBODY …, published 2012).

T1: CD86-Fc protein (R&D) (UniProt P42081 24-245, limits assumed)
T1 construct: Bought reagent; also called B7 molecule; not shown: Fc part of the bought fusion protein, not described
T1 sequence (looked up): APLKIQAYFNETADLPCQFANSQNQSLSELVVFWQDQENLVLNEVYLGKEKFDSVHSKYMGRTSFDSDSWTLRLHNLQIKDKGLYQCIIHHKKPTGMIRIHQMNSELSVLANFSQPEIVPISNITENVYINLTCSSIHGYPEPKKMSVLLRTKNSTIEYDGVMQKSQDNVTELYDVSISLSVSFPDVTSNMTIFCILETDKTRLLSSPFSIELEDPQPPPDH

B1: CTLA-4/Ig mutant CTmut1 (D31Ala to Tyr) (Fc fusion)
chain: not shown
notes: extracellular domain; no entry can be tied to a mutant, so it is built from the un-mutated fusion and the change
B2: CTLA-4/Ig mutant CTmut2 (D31Ala to Lys) (Fc fusion)
chain: not shown
notes: extracellular domain
B3: CTLA-4/Ig mutant CTmut3 (D53Thr to Lys) (Fc fusion)
chain: not shown
notes: extracellular domain
B4: CTLA-4/Ig mutant CTmut4 (D55Met to Glu) (Fc fusion)
chain: not shown
notes: extracellular domain
B5: CTLA-4/Ig mutant CTmut5 (D63Leu to Lys) (Fc fusion)
chain: not shown
notes: extracellular domain
B6: CTLA-4/Ig mutant CTmut6 (D63Leu to Tyr) (Fc fusion)
chain: not shown
notes: extracellular domain
B7: CTLA-4/Ig mutant CTmut8 (D106Leu to Glu) (Fc fusion)
chain: not shown
notes: extracellular domain
B8: CTLA-4/Ig mutant CTmut9 (D106Leu to Asn) (Fc fusion)
chain: not shown
notes: extracellular domain
B9: CTLA-4/Ig mutant CTmut10 (D106Leu to Ser) (Fc fusion)
chain: not shown
notes: extracellular domain
B10: CTLA-4/Ig mutant CTmut7 (D35Arg to Pro) (Fc fusion)
chain: not shown
notes: extracellular domain

What follows are binders tested against T1, CD86-Fc protein (R&D) (assay: Biacore SPR, CD86-Fc coupled on CM5 chip; ratio against un-mutated CTLA-4/Ig (WT)).

Binder	Kd^WT/Kd^mutant
B1	3.98
B2	4.04
B3	0.55
B4	1.75
B5	1.85
B6	2.29
B7	2
B8	0.88
B9	2.68

What follows are binders tested against T1, CD86-Fc protein (R&D) (assay: Biacore SPR, CD86-Fc coupled on CM5 chip; ratio against commercially available abatacept).

Binder	Kd^abat/Kd^mutant
B1	4.24
B2	4.31
B3	0.58
B4	1.87
B5	1.97
B6	2.44
B10	0.58
B7	2.13
B8	0.94
B9	2.86
